Assay results taken from the supplement of paper PMC3334620.
Over roughly 33,000 sequences, “E-score (-0.5 to 0.5)” has its median near -0.016; the highest 2% begin near 0.32. The list shows a part of the results.

Molecular target: T1, Stp1 (UniProt B3LFK1)
T1 sequence: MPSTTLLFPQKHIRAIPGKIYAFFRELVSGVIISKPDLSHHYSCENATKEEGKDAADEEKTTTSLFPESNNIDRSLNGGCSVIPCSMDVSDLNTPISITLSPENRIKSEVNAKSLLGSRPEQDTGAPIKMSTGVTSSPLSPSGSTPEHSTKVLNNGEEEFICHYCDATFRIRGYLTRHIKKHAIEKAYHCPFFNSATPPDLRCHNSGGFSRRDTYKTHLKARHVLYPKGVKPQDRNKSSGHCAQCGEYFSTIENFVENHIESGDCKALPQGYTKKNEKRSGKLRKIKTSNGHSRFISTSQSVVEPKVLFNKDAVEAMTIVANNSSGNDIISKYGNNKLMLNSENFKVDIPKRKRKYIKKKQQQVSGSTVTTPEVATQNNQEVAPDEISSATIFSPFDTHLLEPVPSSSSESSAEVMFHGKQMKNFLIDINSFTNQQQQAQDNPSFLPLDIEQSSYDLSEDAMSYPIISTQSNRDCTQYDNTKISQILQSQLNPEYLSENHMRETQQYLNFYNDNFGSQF
Experiment: PBM E-score (8-mer binding enrichment) (E-score (-0.5 to 0.5)); higher = stronger / more preferred TF binding; most listed sequences are background and not binding sites
Conditions: protein concentration: 200 nM; construct: GST-full length
Protocol: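 Universal 'all 10-mer' protein binding microarrays (Agilent AMADID 015681) probed with GST-tagged S. cerevisiae TFs (full-length or DBD) made by in vitro transcription/translation (PURExpress), about 100-200 nM. Bound TF was detected with fluorescent anti-GST. Each ungapped 8-mer (which stands for itself and its reverse complement) is scored by the PBM enrichment score (E-score), a modified Wilcoxon-Mann-Whitney statistic from -0.5 to +0.5, computed with the Universal PBM Analysis Suite. Scale: above 0.35 generally sequence-specific binding.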

Sequence | PBM E-score
CGGAGTTC | 0.086
AGTCCCAA | -0.271
ATGAAACC | 0.13
AGGTTACC | 0.0337
CGAGGTTC | 0.0719
AACATTCC | -0.173
CGATTCCA | 0.0279
GGCCGCCC | -0.0498
GGTTAACC | -0.16
AAGCGTCA | 0.0621
AACCTTTG | -0.094
CGGCCCCC | -0.171
TGTTGAAA | 0.0365
CTTTAGGA | 0.039
CTAACCCA | -0.108
TAAGTCTA | -0.229
GCACTGAA | 0.0349
ATCAGCTC | -0.131
ATGTAGTA | 0.136
GAGAGTCA | -0.231
TCCACCCA | -0.225
ACGGGATC | 0.0283

Sequence | PBM E-score
TGTGAGAA | 0.113
GCCGCTAC | 0.132
AGTATGTG | -0.138
CACGTAAC | -0.0706
CAGCACGA | -0.0106
GAACGGCA | 0.468
ACCATCAT | -0.213
GTTAAATA | 0.00954
GGGATTTA | 0.153
AAGCTGTG | -0.106
ATGAGCTA | -0.0743
CAAGTCAG | -0.0288
AACTTAAG | 0.183
GAAGATAA | 0.168
AGGGAAAG | -0.0711
CGGTGGAA | -0.112
CTTGGATC | -0.078
ACGCAACT | -0.0117
CCCGATCG | -0.122
ATCTGCGA | -0.0578
GACCGATA | 0.0341
ATGGAGTC | -0.212

Sequence | PBM E-score
GAACTGCC | -0.0452
AAGCGCAA | 0.0218
AGACCAGA | -0.165
CCGCCTAG | -0.119
AATGGTCC | 0.0651
AGCAGTAG | -0.206
GTAGCTAC | -0.0578
ATTCCCTG | 0.135
GTCGAGCA | -0.132
CGCCTGAC | 0.0401
GATCCGCC | 0.15
ACTGTGGA | -0.104
AGGGAGGA | -0.204
GAATATCC | 0.0896
AGACGACT | -0.21
GGATATCC | -0.0505
CGGAACTA | 0.0347
ATTGCTAA | 0.0687
CACATTAG | -0.0393
CAGTTCGA | -0.08
CACTCTGA | -0.0382
AGTGGGAA | 0.0327

Sequence | PBM E-score
ATTGTTGG | 0.128
CTGTATCA | -0.102
GAAGAATC | -0.191
CTGACTAA | -0.00902
CGGTAGCC | -0.0248
GGGTATAA | -0.0426
CGATACCA | 0.0495
CCAATAGA | 0.102
ACATTCTA | 0.173
AACCGTGC | 0.26
CGAGCCCC | -0.231
GAGGCTGC | 0.0204
CCGGGTAA | -0.0766
GACTACCA | -0.268
CTGTAGTA | 0.222
AGCTGACT | -0.0709
CTGCGAAA | 0.0908
CGATCACC | -0.108
ACGACTCT | -0.119
GTTCATCA | -0.0633
GCAGATAC | 0.128
CTGATATA | 0.136

Sequence | PBM E-score
AGCACTAG | -0.0715
AACGTGCA | 0.0355
GATAGCCC | -0.217
GATTTTTA | 0.0265
CCTTCGAG | -0.147
CCGGCGTA | 0.0906
CATCTGGA | -0.0318
GGATTGTA | 0.00146
CCTCTCGA | -0.0526
AGCATCCG | -0.151
ATGCTCTG | -0.204
CAATGTTC | -0.165
AACGTGGG | -0.175
ATCGCACA | -0.129
GCGCATGA | 0.0374
CATGCACA | 0.0872
GGGACTTA | -0.269
CTACGAAG | -0.159
CAACCCTG | -0.232
ACCTACGT | -0.171
AGGGATTG | -0.0197
GCGCGGTA | 0.192
